Results as given in PubChem BioAssay AID588855 (National Center for Advancing Translational Sciences (NCATS), 2011).
Out of some 410,000 compounds screened, about 5,000 (1.2%) were called active. The shares of active, inactive and inconclusive entries below differ from those in the screen. Calls come from the whole dose curve; as a rule, active = well fitted inhibition curve with a large enough effect; inconclusive = small, poorly fitted or top-dose-only effect; inactive = no such curve, though single readings can be large or run the other way. Potencies of inconclusive entries are doubtful fits and often do not repeat.
Potency is the fitted concentration of half-maximal effect; tags give direction and shape of the fitted curve.

Assay: qHTS for Inhibitors of TGF-b; note: nearly all actives have a fitted effect of over 65% in size
Conditions: HepG2 CAGA-GFP TGF-b/SMAD3 reporter, GFP fluorescence, 18 h, TGF-beta stimulated, 500 pg/mL final; series mostly up to 46.1 µM
Summary of the method: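 First, reporter cells (HEPG2 CAGA-GFP) rested 2 h at 37 degrees C. Next, compounds were pinned in and TGF-beta added to 500 pg/mL final. After 18 h, GFP was imaged per cell and summed per well.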
With `CNc1nc(Cl)nc(Nc2ccccc2)n1` the Potency was “inactive”. With `O=C1N[C@H](Cc2c[nH]c3ccccc23)COC(=O)[C@H](Cc2ccc(F)cc2)C/C=C\C[C@H]1CC(=O)N(CCO)Cc1ccccc1` the Potency was inconclusive: 10 µM [inhibitor, partial curve, poor fit]. For `Nc1c(Br)cc(/C=C/c2ccnc3ccccc23)cc1Br`, the Potency was inconclusive: 35.5 µM [inhibitor, single point]. For `CC(=NNc1ccc2ccccc2n1)c1ccccc1O`, the Potency was inconclusive: 35.5 µM [inhibitor, single point]. With `CCc1c(C)sc2c1CCN(Cc1ccccc1)C2c1ccccc1` (stereo unspecified) the Potency was inconclusive: 15.8 µM [inhibitor, partial curve, poor fit]. With `Cc1cc(NC(=O)CSc2nnc(-c3ccccc3C)n2C)no1` the Potency was inconclusive: 5.62 µM [inhibitor, single point]. In the case of `COc1ccc(S(=O)(=O)N2CCN(C(=O)c3ccc(C)o3)CC2)cc1`, the Potency is reported as inconclusive: 35.5 µM [inhibitor, single point]. In the case of `C=CCc1ccccc1OCCSc1nc(-c2cccs2)nc2cc(=O)[nH]n12`, the Potency is reported as inconclusive: 35.5 µM [inhibitor, single point]. With `CC1(C)Cc2c(sc(NC(=O)C(=O)NCCCN3CCOCC3)c2C#N)CO1` the Potency was “inactive”. With `CCOc1ccc(NC(=O)c2c(C)nn(-c3ccc(F)cc3)c2-n2cccc2)cc1` the Potency was “inactive”. With `Cc1cn2c(=O)cc(COc3cccc(NC(=O)c4ccc(C(C)(C)C)cc4)c3)nc2s1` the Potency was inconclusive: 2.82 µM [inhibitor, full curve, poor fit]. In the case of `C[C@@H]1ON(C)[C@H]2C[C@H]3c4[nH]c5ccccc5c4CCN3C[C@@H]12`, the Potency is reported as “inactive”. In the case of `COc1cc(/C=N\Nc2nc3ccccc3[nH]2)cc(OC)c1OC`, the Potency is reported as inconclusive: 2.82 µM [inhibitor, partial curve]. With `Cc1ccc(NC(=O)CCCC(=O)OC(C)C(=O)c2ccccc2)cc1` (stereo unspecified) the Potency was “inactive”. For `Cc1ccc(/C=N/N2C(=S)SC(C)(C)C2N(O)C(=O)Nc2ccc([N+](=O)[O-])cc2)cc1` (stereo unspecified), the Potency was inconclusive: 11.2 µM [inhibitor, single point]. With `CC(=O)N1CCCc2cc(S(=O)(=O)CCC(=O)N3CCN(c4cccc(C)c4)C(C)C3)ccc21` (stereo unspecified) the Potency was inconclusive: 20 µM [inhibitor, single point]. In the case of `Cc1nc2nc(SCC(=O)N(C)Cc3ccccc3)nn2c(C)c1Cc1ccccc1Cl`, the Potency is reported as inconclusive: 35.5 µM [inhibitor, partial curve, poor fit]. In the case of `O=C(N[C@@H]1C/C=C\C[C@H](CC(=O)N(CCO)Cc2ccccc2)C(=O)N[C@@H](Cc2ccccc2)COC1=O)OCC1c2ccccc2-c2ccccc21`, the Potency is reported as inconclusive: 11.2 µM [inhibitor, partial curve, poor fit]. In the case of `N#CC1=C(N)NC(SCc2ccc(Br)cc2)=C(C#N)C12CCCCC2`, the Potency is reported as inconclusive: 35.5 µM [inhibitor, single point]. For `Nc1nc(SCc2ccccc2Cl)c2ncn(C3OC(CO)C(O)C3O)c2n1` (stereo unspecified), the Potency was “inactive”. With `Cc1nnc(N2CCCC(C(=O)NCc3ccccc3)C2)c2nn(-c3ccccc3)c(C)c12` (stereo unspecified) the Potency was “inactive”. In the case of `Cc1c(Cl)cccc1-c1ccc(CNCCCSc2nnnn2C)o1`, the Potency is reported as inconclusive: 35.5 µM [inhibitor, single point]. With `COCCN(C(=O)CSc1nnc(C)n1-c1ccc(C)cc1)c1c(N)n(Cc2ccccc2)c(=O)[nH]c1=O` the Potency was inconclusive: 8.91 µM [inhibitor, partial curve, poor fit]. In the case of `CCN(CCNC(=O)Cn1c(=O)sc2ccccc21)c1ccccc1`, the Potency is reported as inconclusive: 35.5 µM [inhibitor, single point]. With `Fc1ccc(-c2nc3ccc(Br)cn3c2Cc2ccccc2C(F)(F)F)cc1` the Potency was inconclusive: 11.2 µM [inhibitor, single point]. For `Cc1ccccc1NC(=O)C(=O)NCCc1ccccc1`, the Potency was “inactive”. In the case of `[O-][N+]12CCCc3cccc(c31)CCC2`, the Potency is reported as “inactive”. In the case of `Cc1ccc(CN2CCC(CNC(=O)C3CCCN(c4ncnc5c4nc4n5CCCCC4)C3)CC2)cc1` (stereo unspecified), the Potency is reported as inconclusive: 35.5 µM [inhibitor, single point]. In the case of `Cc1nc(-c2ccccc2O)n(-c2ccccc2)n1`, the Potency is reported as inconclusive: 1.58 µM [inhibitor, partial curve, poor fit]. In the case of `CCN(CC)c1cc(C)c2cc(NC(=O)c3cccc(OC)c3OC)ccc2n1`, the Potency is reported as inconclusive: 35.5 µM [inhibitor, single point]. With `COCCCNCCCOc1ccc(C(C)(C)c2ccccc2)cc1` the Potency was inconclusive: 35.5 µM [inhibitor, single point]. For `Cc1cc(F)ccc1-c1cc(C(=O)NCC2CCCCC2)[nH]n1`, the Potency was inconclusive: 35.5 µM [inhibitor, single point]. In the case of `Cc1cc(/C=C2/C(=N)N3C(c4ccccc4)=CSC3=NC2=O)c(C)n1-c1ccccc1`, the Potency is reported as “inactive”. With `COc1cccc2cc(S(=O)(=O)c3ccc(F)c(C)c3)c(=O)oc12` the Potency was inconclusive: 0.631 µM [inhibitor, full curve, poor fit]. With `Cn1nnnc1SCC(=O)Nc1cccc([N+](=O)[O-])c1` the Potency was inconclusive: 0.316 µM [inhibitor, full curve, poor fit]. In the case of `CCOC(=O)N1CCN(CC(=O)Nc2nccs2)CC1`, the Potency is reported as “inactive”. For `CN1CCN(C(=O)CCN2C(=O)/C(=C/c3cccc(Br)c3)SC2=S)CC1`, the Potency was active: 17.8 µM. For `COC(=O)c1sc2cccc(F)c2c1S(=O)(=O)N1CCN(c2cccc(OC)c2)CC1`, the Potency was inconclusive: 35.5 µM [inhibitor, single point]. In the case of `COc1cc(NC(C)=O)ccc1NC(=O)c1cc2ccccc2o1`, the Potency is reported as “inactive”. For `COc1ccc2c(c1)c1ccc3c(c1n2C)C(=O)C=CC3=O`, the Potency was inconclusive: 35.5 µM [inhibitor, single point]. For `COc1ccc(NC(=O)Cn2cnc3ccc(S(=O)(=O)N4CCC(C)CC4)cc3c2=O)c(OC)c1`, the Potency was inconclusive: 12.6 µM [inhibitor, partial curve, poor fit]. For `C=CCn1c(Cc2cccc3ccccc23)n[nH]c1=S`, the Potency was inconclusive: 0.562 µM [inhibitor, full curve, poor fit]. For `COc1cccc(CNC(=O)c2ccc(-c3nc(CS(=O)c4ccccc4)c(C)o3)cc2)c1` (stereo unspecified), the Potency was inconclusive: 35.5 µM [inhibitor, single point]. With `COC(=O)c1c(NC2=NS(=O)(=O)c3ccccc32)sc2c1CCC(C(C)(C)C)C2` (stereo unspecified) the Potency was “inactive”. In the case of `CN(C)CCN(C(=O)c1ccc2ccccc2c1)c1nc2ccc(Br)cc2s1`, the Potency is reported as “inactive”. In the case of `Cc1ccc(C)c(-n2nnnc2SCC(=O)NCCC2=CCCCC2)c1`, the Potency is reported as “inactive”. For `COc1cc(C(=O)N/N=C/c2cn(Cc3cccc(F)c3)c3ccccc23)ccc1O`, the Potency was inconclusive: 0.562 µM [inhibitor, full curve, poor fit]. In the case of `CN(c1ccccc1)S(=O)(=O)c1cccc(NC(=O)C2=NN(c3ccccc3)C(=O)CC2)c1`, the Potency is reported as inconclusive: 6.31 µM [inhibitor, partial curve, poor fit]. In the case of `CCNCc1nc2cc(OC)c(OC)cc2c(=O)[nH]1`, the Potency is reported as “inactive”. For `COc1ccc(CN2C(=O)CN=C2Nc2cc(C)ccc2C)cc1`, the Potency was inconclusive: 5.62 µM [inhibitor, single point]. For `CCC(C)c1ccccc1NC(=O)c1cccnc1` (stereo unspecified), the Potency was “inactive”. In the case of `Cc1ccc(Sc2ccc(N3CCCC(C(=O)Nc4ccc(Br)cc4)C3)nn2)cc1` (stereo unspecified), the Potency is reported as inconclusive: 3.55 µM [inhibitor, full curve]. With `CCN(CC)S(=O)(=O)c1ccc(/C=C/C(=O)Nc2ccc(Br)cc2F)cc1` the Potency was inconclusive: 4.47 µM [inhibitor, full curve, poor fit]. With `COc1cccc(OC)c1C(=O)N1CCN(Cc2ccccc2C(F)(F)F)CC1` the Potency was “inactive”. For `COc1ccc(/C=C(\NC(=O)c2ccc(C)cc2)C(=O)Nc2c(C)n(C)n(-c3ccccc3)c2=O)cc1`, the Potency was “inactive”. With `CSc1cccc(NC(=S)N(CCCN2CCCC2)Cc2cccn2Cc2ccc(Cl)cc2)c1` the Potency was inconclusive: 25.1 µM [inhibitor, partial curve, poor fit]. In the case of `O=C(CCC1CCCN(C(=O)CCC(F)(F)F)C1)NCc1ccc(F)c(F)c1` (stereo unspecified), the Potency is reported as inconclusive: 7.08 µM [inhibitor, partial curve, poor fit]. With `CCN(CC)c1ccc(C(=C2C=CC(=[N+](CC)CC)C=C2)c2ccccc2)cc1` the Potency was inconclusive: 0.316 µM [inhibitor, full curve, poor fit]. In the case of `CCCn1c(=N)n(CC(=O)OCC)c2ccccc21`, the Potency is reported as inconclusive: 35.5 µM [inhibitor, single point]. With `CCc1ccc(-n2nc(CO)c(C(=O)NC(C)c3ccc(Cl)cc3)n2)cc1` (stereo unspecified) the Potency was inconclusive: 22.4 µM [inhibitor, partial curve, poor fit]. With `COc1cccc(CNC(=O)CN2C(=O)CCc3cc(S(=O)(=O)N4CCOCC4)ccc32)c1` the Potency was inconclusive: 0.562 µM [inhibitor, full curve]. With `COc1ccc2nc(C3CCCCC3)c3c(c2c1)CCC3` the Potency was inconclusive: 17.8 µM [inhibitor, single point]. With `CCc1ccc([C@@H]2CC=C(C(=O)O)[C@H](c3ccc(Cl)cc3)N2S(=O)(=O)c2ccc(C)cc2)cc1` the Potency was inconclusive: 31.6 µM [inhibitor, single point]. In the case of `CCOC(=O)c1c(NC(=O)CCN2CCOCC2)sc(C)c1-c1ccccc1`, the Potency is reported as “inactive”. For `Cc1ccc(NC(=O)CSc2nnc(C3CC3)n2N)cc1S(=O)(=O)N1CCOCC1`, the Potency was “inactive”. With `O=C(NC1CCCC1)c1ccc2c(=O)n(Cc3ccccc3)c(SCc3ccc([N+](=O)[O-])cc3)nc2c1` the Potency was “inactive”.
